In the RNAGym collection of RNA variant scans (doi:10.7554/elife.90254) one finds self-cleavage data, which are given here for 167 variants.

The chains are these.
B1: OR4K15 (parent)
chain: GUUAACGGUCAUAGGCCAUGGAAACUAGGAGCACCAUUUCGCUGCCAGUGAAGAAAUGAACAAAGAAAAUCUGGGCCAGGCAGGCAUCAAAAGAAAUAGUCUUGCGCUCAACCAGAAAGUCUGUAAUCAUUUUAAGGGUA

The source gives no read counts; variants with many changes may rest on few reads.

Variants of B1 are the subject of the data set. Description: self-cleavage, relative activity (ratio to wild type); higher = more cleavage; in vitro, sequencing; the parent is a self-cleaving ribozyme.
For the variant A55G A78G U100C A125G U130C, the self-cleavage came to 0.05. Consider A54G A94G A116G, for which the self-cleavage is 0.14.

As for A55C A95G U102C U103C U127C, the self-cleavage came to 0.1. Consider A54G A86G A111G A116G A125G U130C, for which the self-cleavage was found to be 0.

Regarding A55G C107U A126G, the self-cleavage was 0.02. For A55G A90C A92G U108C U127C the value was 0.01; for A54G U57C A63G, 0.36. For the variant A55G A60U C85U A125G, the self-cleavage is 0.56. As for A54G U103C A126G U127C, the self-cleavage was determined as 0.2. The same measure for A54G A60G A63G U132C: 0.97; for A54U A60G A68G A117G: 2.56; for A55G A86G U87C: 0.6.

On to A55G A67G A116G, for which the self-cleavage stood at 0.18. Regarding A54U A94G U108C U127C, the self-cleavage came out at 0.01.

Regarding A55G A69G A92G A95U, the self-cleavage is 1.29.

Regarding A54U A110U A126G, the self-cleavage is 0.79.

In the case of A55G U70C A89G U103C, the self-cleavage is 0.35. In the case of A55G G99A U127A U131C A135U, the self-cleavage was found to be 0.84.

Take A55G A91G U131C: the self-cleavage turned out to be 1.48. Take A55G A114G A126C: the self-cleavage turned out to be 0.1.

Consider A55G A92G A114G, for which the self-cleavage is 0.5. With A54G A64G G75A U102C C112U A118G, the self-cleavage is 0.01. With A54G C81U U124C, the self-cleavage was 0.1. On to A54G U108C U132C, for which the self-cleavage stood at 0. With A55G A60G A68G A126G, the self-cleavage worked out at 0.59. On to A55G A68G A111G, for which the self-cleavage came out at 0.02. For the variant A55G A114C U122C U131C U132C, the self-cleavage stood at 0.01. Regarding A54G A86U A98U, the self-cleavage stood at 2.

Turning to A54G A56G U87C A92G, the self-cleavage came to 1.83. On to A55G A90G A118G U130C, for which the self-cleavage was 0.16.

For the variant A55G A90G A118G, the self-cleavage amounted to 0.22. Take A54U A56G A60G: the self-cleavage worked out at 1.22. As to A54G G80A A126G, the self-cleavage is 0.19. Take A54G A60G U103C A118G: the self-cleavage was found to be 0.21. Turning to A54G A82G A110G U127A, the self-cleavage worked out at 0.17. For the variant A55G A66G G73U, the self-cleavage amounted to 0.12. Turning to A55G A62G A82C A91G U131G, the self-cleavage came out at 0.

In the case of A55G G99U A126G, the self-cleavage came out at 0.38. The same measure for A54G A82C A117U: 0.07; for A54G A91G U139C: 1.03; for A55G A117U C121A: 2.31.

A55G A63G U130C: the self-cleavage turned out to be 1.67.

Consider A55G A59G A82G, for which the self-cleavage came to 0.2. The same measure for A54G A78G C101A: 0.12; for A54G A62G A86C A95G: 0.67. Regarding A55G A67G U70A A92G A96G A134U, the self-cleavage came to 0.71.

Turning to A54G A62U A126G, the self-cleavage turned out to be 0.76. As for A54G A59G A78U, the self-cleavage stood at 0.16. On to A54G A56G A60G, for which the self-cleavage was determined as 1.25. Take A54G U108C A118G: the self-cleavage was 0.02. Turning to A55G A66G G83A U122C, the self-cleavage is 1.6. As to A54G A59G U103C, the self-cleavage turned out to be 0.79. For A55G A64G A94G A134U U139C, the self-cleavage was 1.52.

On to A55G G80A U100C U108A, for which the self-cleavage is 0.01.

With A55G A66G A69G A95G U131A, the self-cleavage was found to be 1.26. For A55G A89G G93U, the self-cleavage was found to be 0.61. For A54G A67G U108C A110U, the self-cleavage worked out at 0. For A54G A66G A114U the value was 0.15; for A54G A78G A98U, 0.29. For the variant A54G A60G A86G, the self-cleavage came to 1.55. As for A54G A60G A116U, the self-cleavage came to 0.14. With A55G A89U A114G, the self-cleavage turned out to be 0.12.

Consider A55G A78U U102C U130C, for which the self-cleavage was 1.14. The same measure for A54G A90G A110G: 0.13; for A55G A56G A96U: 1.33; for A54U A56G A94G: 1.78. In the case of A55G C85G U132C, the self-cleavage was 0.41. Regarding A54G C61A A94G A95G U124C C128U, the self-cleavage worked out at 0.94. For A55G A96G U108G A135U, the self-cleavage turned out to be 0.02. On to A54G A55U A78U, for which the self-cleavage amounted to 0.25.

A54G A86U U139C: the self-cleavage is 2.23. Turning to A55G A67G A94G A117G, the self-cleavage was 1.18.

In the case of A55G A94G A114U, the self-cleavage came to 0.02. In the case of A54G A62U G123A, the self-cleavage stood at 2.25. Regarding A54G A56G A68C U100C, the self-cleavage amounted to 2.39. Regarding A55G A62U U108C G138U, the self-cleavage came out at 0.01.

On to A54G A68U A69G, for which the self-cleavage came to 0.82. For the variant A55G A56G U72A A95G U130C, the self-cleavage turned out to be 0.37. For A55G A59U U100C A117G A125G the value was 1.13. Consider A54G A60G U87C U139A, for which the self-cleavage amounted to 0.75. For A55G A62C U97C, the self-cleavage was 1.16. For the variant A54U A67G A91G A134G, the self-cleavage turned out to be 2.08. As for A55G A82G U87G A94G U120C, the self-cleavage came out at 0.18.

In the case of A55G A59G U130G, the self-cleavage stood at 1.03. As for A54G A66G A95G, the self-cleavage turned out to be 2.27. As for A55G G104A A116U A129G A135C, the self-cleavage amounted to 0.

In the case of A54U U100C A116G, the self-cleavage was 0.81. The same measure for A55G A78C A91G: 0.2; for A54G A78G A117G: 0.57; for A55G A82G A126G: 0.24. As for A54G A60U A91G, the self-cleavage was determined as 0.61.

Take A54G A68C A89G U120C U122C: the self-cleavage was found to be 1.11. For A54G A94U C121U, the self-cleavage was 2.55. Turning to A55G A68G A129G, the self-cleavage came out at 1.85. In the case of A55G A89G U102C U122C, the self-cleavage turned out to be 2.15. With A54G A56G A96G, the self-cleavage worked out at 1.68. For A54U U87G A94G U102C the value was 0.7. Consider A55G A67G A98G, for which the self-cleavage was found to be 0.46.

Regarding A54G U87C A92G, the self-cleavage is 1.24. A54G U72C A90G U133C: the self-cleavage is 0.26. With A55G A66G C71A A89U, the self-cleavage was determined as 0.64. Consider A54G A92G U108C A135U, for which the self-cleavage stood at 0.01. Turning to A55G A86G A111G, the self-cleavage turned out to be 0.01. A55G A62G G73A: the self-cleavage came to 0.04. With A55G A66G U127C U139A, the self-cleavage was found to be 0.71. With A55G A68G A78G, the self-cleavage worked out at 0. In the case of A55G A60G A98G, the self-cleavage was 0.7. For A54G A126U U130C U131C the value was 0.81. On to A55G A78G A125C, for which the self-cleavage is 0.06.

Take A55G A69G A116G: the self-cleavage was determined as 0.24. Consider A54U U103C U122C, for which the self-cleavage came out at 0.67. As for A55G G80A U87A U97A, the self-cleavage was 0.18. Turning to A54G A67G U108C A116G U133C, the self-cleavage came out at 0.01. Take A55G A78U C81U A114G U131G: the self-cleavage was 0. The same measure for A54G A62G C81U: 0.25; for A55G A90G U120A: 0.84. A54G U87C U103A A117G: the self-cleavage was 0.86.

With A55G A94G G119A, the self-cleavage was determined as 1.74.

Consider A55G A62U A82G U139C, for which the self-cleavage was found to be 0.15. A54G A56G G79A A111G A126G: the self-cleavage is 0. For the variant A55G A78G U120C, the self-cleavage came out at 0.3. Take A55G A60G A64G A94G: the self-cleavage amounted to 0.68.

Turning to A55G A66G U122C, the self-cleavage is 1.6. With A55G A114U U131C, the self-cleavage was found to be 0.09. A54G U57C A60G A63G C128A: the self-cleavage stood at 0.33. Take A55G A63G A68G A92G U102C: the self-cleavage was determined as 1.99. The same measure for A55G A67G A92G: 2.33.

Turning to A55G A66G U127C, the self-cleavage worked out at 0.31.

A55G U57C A86G U87C A89G U103C A129U U132C: the self-cleavage came to 0.01. The same measure for A55G A64G U72C U87C A129G: 0.08; for A55G A117G U131A U132A: 1.09. As to A55G A68G A96G A118G, the self-cleavage came to 0.39. As to A55G A59U A64G U102C A111G, the self-cleavage came to 0.01. As to A55G A90G A129G, the self-cleavage stood at 0.45. For A54G A78G U139A the value was 0.44; for A55G A63G A91G U122C, 0.71; for A54G A111U A134G, 0.03. For A54G A62G A98G the value was 0.32; for A55G A59U A90G, 0.75. The same measure for A54G A68G U103G U122A: 0.01; for A55G A118G A140G: 0.88. For the variant A55G U70A U108C A111G U120C, the self-cleavage was 0. As to A54G U57C A126G, the self-cleavage worked out at 0.79.

Consider A55G A66G A111G, for which the self-cleavage stood at 0.05. The same measure for A55G A56G A134G: 0; for A54U U132C A135G: 2.05; for A55G A64G A90G U102C: 1.89.

Take A55C A62G A69U U122A: the self-cleavage was 1.79. Consider A55G A125G U131C, for which the self-cleavage came to 0.98.

With A55G A82C A90G U120C, the self-cleavage was 0.06.

Consider A55G A95U A118U, for which the self-cleavage was determined as 1.02. Consider A54G A68G A86U A95G, for which the self-cleavage came to 0.49.

Take A54G U87C A126G: the self-cleavage worked out at 0.52. On to A54G A98G A125U A126G, for which the self-cleavage worked out at 0.26. With A54G A116U A118G, the self-cleavage worked out at 0.06. As to A54G A111U U139C, the self-cleavage amounted to 0.13. Turning to A55G A68G U72C, the self-cleavage turned out to be 0.17. For A54G A86G A96G, the self-cleavage came to 1.67. Regarding A55G C88U A126G, the self-cleavage was 1.29.

Take A55G A82G A110G: the self-cleavage was 0.09. In the case of A55G A91G U108C U130C, the self-cleavage amounted to 0. For A55G A78G A90G the value was 0.07. Consider A54G A56G A82G U127C, for which the self-cleavage is 0.44. For the variant A55G A64G A78C, the self-cleavage came out at 0.19. For A55G A114U U127C the value was 0.05; for A54G A78G A114G A125G, 0.03. In the case of A54G A94G C107A A134C, the self-cleavage worked out at 0.05.
